These results are taken from article PMC6212790.

The list shows a part of the results. At the low end of the ranking the order means little.

The assay addresses T1, GST-Rok-C97-191 (UniProt O34857).
T1 sequence: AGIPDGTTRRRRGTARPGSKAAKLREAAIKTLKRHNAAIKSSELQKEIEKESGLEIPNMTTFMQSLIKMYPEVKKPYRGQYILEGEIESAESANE
Nature of the assay: protein binding microarray.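 Also: rank score from −0.5 (least bound) to 0.5 (best bound).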 To be noted: Rok is a gene silencer of Bacillus subtilis; high values mean tight binding; most listed sequences are background and not binding sites; double strand, one strand shown.
CACTAGAG: the binding signal is -0.181 E-score.
For AGTTGCAA the value was 0.136 E-score; for GGACAATA, -0.0723 E-score; for CCTCTATA, 0.0169 E-score.
The result for GTCTTGTA reads 0.0394 E-score.
For CATAACGG, the binding signal is -0.0641 E-score.
The result for TCAGTAGA reads 0.307 E-score; that for AGCCAAGG, -0.209 E-score; that for CCAGAAAG, -0.066 E-score.
The result for GATCTACA reads 0.29 E-score; that for CGGAGTTA, 0.0606 E-score.
The result for GCCCTCGC reads -0.334 E-score; that for CTGGACGA, -0.165 E-score.
CTGGAAAA displayed a binding signal of 0.107 E-score.
Regarding GTCAGCAA, the binding signal is -0.0683 E-score.
TGGATACA came in with a binding signal of 0.0228 E-score.
For CACGAAAA, the binding signal was -0.0184 E-score.
The result for ATAGAGCA reads -0.101 E-score.
Consider CCTGCTTA, for which the binding signal is -0.0481 E-score.
Turning to GACGGCCA, the binding signal is -0.126 E-score.
CTAAGCGC: the binding signal is -0.106 E-score.
In turn, ATCAGCAT displayed a binding signal of 0.00687 E-score.
For CAGTGCCA the value was 0.0139 E-score; for AGCAGGGA, -0.211 E-score.
The result for GATTAGCA reads -0.0905 E-score; that for CGTTAGTA, 0.0633 E-score.
Consider CACTAGTA, for which the binding signal was 0.253 E-score.
As for CGCAATTC, the binding signal came to 0.141 E-score.
In turn, ACATTAGC returned a binding signal of 0.0793 E-score.
For CAGTCAAA, the binding signal was -0.138 E-score.
In turn, AGTAACAT came in with a binding signal of 0.127 E-score.
Turning to ATGGCTAC, the binding signal is -0.124 E-score.
As to AGATGGCA, the binding signal was -0.115 E-score.
For AAACACAT the value was 0.108 E-score.
Turning to AATAACTG, the binding signal was 0.167 E-score.
The result for AATGAGGA reads -0.0807 E-score; that for ACTGGCCT, -0.278 E-score; that for CTATTGTC, -0.0498 E-score.
For AGCGCTAC, the binding signal turned out to be 0.144 E-score.
On to CGAGTTGA, for which the binding signal came to 0.17 E-score.
The result for ACCGATAG reads 0.074 E-score; that for ACCGATCT, 0.104 E-score; that for GGTCAAAC, -0.117 E-score.
In turn, ACTATTGA displayed a binding signal of 0.225 E-score.
Take ATTTTAAC: the binding signal came out at 0.203 E-score.
With GCGAGCAC, the binding signal is -0.273 E-score.
As to ACAGCGGG, the binding signal was -0.26 E-score.
The result for AAGGCTTC reads -0.21 E-score; that for GGTAACTA, 0.336 E-score.
CAAGGATG: the binding signal was -0.044 E-score.
For CCGTACTC the value was 0.0243 E-score; for CTTATCAA, 0.0662 E-score.
On to AGCTCCGC, for which the binding signal is -0.213 E-score.
GATATCCC: the binding signal is -0.0628 E-score.
In the case of AAACGTCT, the binding signal is -0.164 E-score.
For ACCCTAAT the value was -0.031 E-score; for GTTCACAA, 0.0752 E-score.
The result for GCTGGTAC reads 0.107 E-score; that for ATACCTAA, 0.238 E-score.
For AGAGAAAG the value was 0.159 E-score.
As to AAAAACCG, the binding signal was 0.018 E-score.
On to CCATGGCG, for which the binding signal was -0.0861 E-score.
Regarding GACGAAGA, the binding signal was -0.0457 E-score.
The result for GATAGTCC reads -0.234 E-score; that for CCGAGTGC, -0.133 E-score.
For the sequence CACGGCGA, the binding signal is -0.0927 E-score.
For CCTTCCTA the value was -0.0804 E-score; for ATCTGCGA, -0.112 E-score; for ATAGAGGA, 0.0897 E-score.
Take CAGCGGGC: the binding signal is -0.264 E-score.
For TCGCAGCA the value was -0.203 E-score.
The result for CTTACCAA reads 0.0678 E-score; that for ACCCGGAG, 0.000729 E-score.
As to AACTTTAA, the binding signal was found to be 0.131 E-score.
For the sequence CCCATGAG, the binding signal was found to be 0.0334 E-score.
For CGAGGGGA, the binding signal was -0.265 E-score.
Take TCTAGACA: the binding signal is 0.0238 E-score.
The sequence GTTACAAC returned a binding signal of 0.267 E-score.
Take AACGGCAG: the binding signal was -0.155 E-score.
The result for CAAGACTC reads -0.206 E-score; that for ACTCTCAT, -0.0289 E-score; that for ATTTCGAC, 0.0925 E-score.
The result for CGTCCGTC reads -0.267 E-score.
On to ATAACGAC, for which the binding signal was -0.0184 E-score.
The result for AGGATTTG reads -0.0211 E-score; that for AACTGCAA, 0.111 E-score.
With CTTCCCGC, the binding signal was -0.277 E-score.
The result for CCAGCGTA reads -0.066 E-score.
Sequence AATGCTAC displayed a binding signal of 0.25 E-score.
CTGAGGTA registered a binding signal of 0.0561 E-score.
The result for AGCCCTGG reads -0.185 E-score; that for ATTTCTGG, 0.0299 E-score.
For AAGAAGCC, the binding signal was -0.116 E-score.
The result for CTATGGGC reads 0.0692 E-score; that for ACCCAACC, 0.0339 E-score.
For GACCTATA, the binding signal turned out to be 0.228 E-score.
In the case of CCGCGGAA, the binding signal is -0.0786 E-score.
For GCAAAGAC, the binding signal is -0.0775 E-score.
The sequence ACGAGTTC registered a binding signal of 0.0249 E-score.
For GCGAAGAC the value was -0.123 E-score; for GGTGCGAA, -0.0566 E-score.
For CGTGGGGC the value was -0.25 E-score.
For GTTCCCAA the value was -0.143 E-score; for GTAAGTGA, 0.106 E-score; for GCTAGGCA, -0.0675 E-score.
In the case of CAAGGGAA, the binding signal was -0.0966 E-score.
For ATCAGCCG the value was -0.22 E-score; for CATTGGCG, -0.169 E-score.
The result for ACATAAAA reads 0.0739 E-score; that for CACTGCAC, -0.046 E-score.
The result for AAGTTCAC reads 0.104 E-score; that for CAGTCGGG, -0.0155 E-score.
As to AGTAGTCA, the binding signal worked out at 0.259 E-score.
The result for GCTGGCAC reads -0.243 E-score; that for AAAGGTCT, -0.123 E-score.
The result for ACGGCGAG reads -0.16 E-score; that for CACAGCTG, -0.208 E-score.
For GGCGTAGA the value was 0.0104 E-score; for ATGGTCAA, 0.137 E-score.
For ACGGCTCT, the binding signal was -0.158 E-score.
With ACTCATGA, the binding signal is -0.0428 E-score.
For ACGAATCA the value was 0.0562 E-score; for ATGCTGCA, -0.0307 E-score; for CCCAAATA, -0.0316 E-score.
For CTCTCCGA the value was -0.169 E-score.
The sequence CAAGGTAA displayed a binding signal of 0.166 E-score.
As for GCGCTCCC, the binding signal is -0.3 E-score.
The result for CTTCCGTC reads -0.242 E-score.
With AGCCCGGC, the binding signal is -0.172 E-score.
AAACCTTC came in with a binding signal of 0.0022 E-score.
On to AAACTTTA, for which the binding signal is -0.0256 E-score.
The result for AGGAGAAC reads -0.154 E-score.
For CTTATTAA the value was 0.117 E-score; for CCCAGCAA, -0.12 E-score.
For ATGTCCTA the value was -0.0529 E-score; for AAAAGGGA, -0.218 E-score; for AAGGGCAA, -0.0609 E-score.
As for GGACGACC, the binding signal was -0.234 E-score.
With CCGCTGTA, the binding signal is -0.0671 E-score.
In the case of AATTGGAT, the binding signal was 0.0104 E-score.
In turn, GGTAGTAC came in with a binding signal of 0.268 E-score.
On to CAGTACTG, for which the binding signal turned out to be 0.0988 E-score.
Take TATCATCA: the binding signal was found to be 0.118 E-score.
In turn, AATTGCAT came in with a binding signal of 0.02 E-score.
Regarding GGACGGAC, the binding signal is -0.309 E-score.
For AAGATATT the value was 0.269 E-score; for CTAATAAC, 0.106 E-score.
Turning to CCCTGCGA, the binding signal is -0.284 E-score.
The result for GATGGGCC reads -0.279 E-score.
The result for ACAAGTTA reads 0.285 E-score.
For ACGGACTA the value was -0.0168 E-score.
ACCTAAGT registered a binding signal of 0.0233 E-score.
For CGCTTCGA the value was -0.109 E-score; for AATACCGT, 0.303 E-score; for ACCCTCAC, -0.16 E-score.
GTTCTATA registered a binding signal of 0.273 E-score.
In turn, AAATACCC had a binding signal of 0.204 E-score.
For GGCGCCAA the value was -0.257 E-score; for AATGTTTA, 0.133 E-score; for AGAAGCTC, -0.0476 E-score.
In the case of GCATGGAA, the binding signal was -0.0693 E-score.
Consider CGTGCGGA, for which the binding signal is -0.018 E-score.
As for GATTCGCA, the binding signal was -0.242 E-score.
The result for ATATACCC reads 0.127 E-score.
With CACCAGCA, the binding signal is -0.195 E-score.
AAGGTCGT had a binding signal of 0.0698 E-score.
For GAGGATGC the value was -0.154 E-score; for CTTAAACA, -0.0155 E-score.
CTGCTTTC: the binding signal is -0.266 E-score.
The result for ATCCGTTA reads -0.00635 E-score; that for AAGAGGAC, -0.0193 E-score; that for CGCGGCGC, -0.232 E-score.
